Values joined by “and” are separate entries in the source; they are usually repeats but may differ in a detail not shown here. Identical values can stand only once. This continues a long series; more values of the same kind are listed elsewhere. Toxic doses and inconclusive results are not listed. Rule for the calls: active = survival T/C of 150% or more; inactive = T/C below 125% in these data.
Tested on: CD2F1 mice, L1210 leukemia ip, survival T/C
Experiment: NCI In Vivo Anticancer Drug Screen. Data for tumor model L1210 Leukemia (intraperitoneal) in CD2F1 (CDF1) mice
Conditions: higher = longer survival
Method in brief: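 Implant tumor; dose compound or vehicle; measure endpoint in both groups; report treated divided by control.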

Measured: T/C

S=c1nc[nH]c2nc[nH]c12
inactive: endpoint: mean survival time, dose: 9.38 mg/kg/injection, schedule: Q01DX009 (ip), vehicle: alkali diluted with saline 107 % of control | endpoint: mean survival time, dose: 10.0 mg/kg/injection, schedule: Q01DX005 (ip), vehicle: alkali diluted with saline 112 % of control | endpoint: mean survival time, dose: 10.0 mg/kg/injection, schedule: Q01DX005 (ip), vehicle: alkali diluted with water 110 % of control | endpoint: mean survival time, dose: 20.0 mg/kg/injection, schedule: Q01DX005 (ip), vehicle: sodium bicarbonate 104 % of control and 106 % of control | endpoint: mean survival time, dose: 20.0 mg/kg/injection, schedule: Q01DX009 (ip), vehicle: alkali diluted with water 107 % of control | endpoint: mean survival time, dose: 20.0 mg/kg/injection, schedule: Q03DX003 (ip), vehicle: saline 106 % of control | endpoint: mean survival time, dose: 20.0 mg/kg/injection, schedule: Q04DX003 (ip), vehicle: saline 107 % of control | endpoint: mean survival time, dose: 30.0 mg/kg/injection, schedule: Q04DX003 (ip), vehicle: saline 102 % of control | endpoint: mean survival time, dose: 30.0 mg/kg/injection, schedule: Q## X002 (ip), vehicle: saline 103 % of control | endpoint: mean survival time, dose: 30.0 mg/kg/injection, schedule: Q## X009 (ip), vehicle: saline 107 % of control | endpoint: mean survival time, dose: 32.4 mg/kg/injection, schedule: Q04DX003 (ip), vehicle: alkali diluted with saline 110 % of control | endpoint: mean survival time, dose: 40.0 mg/kg/injection, schedule: Q01DX001 (ip), vehicle: alkali diluted with water 104 % of control and 106 % of control | endpoint: mean survival time, dose: 40.0 mg/kg/injection, schedule: Q01DX005 (ip), vehicle: sodium bicarbonate 107 % of control | endpoint: mean survival time, dose: 50.0 mg/kg/injection, schedule: Q04DX003 (ip), vehicle: alkali diluted with water 112 % of control | endpoint: mean survival time, dose: 54.0 mg/kg/injection, schedule: Q04DX003 (ip), vehicle: alkali diluted with saline 105 % of control | endpoint: mean survival time, dose: 56.25 mg/kg/injection, schedule: Q04DX003 (ip), vehicle: alkali diluted with saline 102 % of control | endpoint: mean survival time, dose: 60.0 mg/kg/injection, schedule: Q## X006 (ip), vehicle: saline 103 % of control | endpoint: mean survival time, dose: 90.0 mg/kg/injection, schedule: Q## X006 (ip), vehicle: saline 110 % of control | endpoint: mean survival time, dose: 112.5 mg/kg/injection, schedule: Q04DX003 (ip), vehicle: alkali diluted with saline 111 % of control | endpoint: mean survival time, dose: 160.0 mg/kg/injection, schedule: Q01DX005 (ip), vehicle: sodium bicarbonate 104 % of control | endpoint: median survival time, dose: 10.0 mg/kg/injection, schedule: Q01DX005 (ip), vehicle: alkali diluted with water 111 % of control | endpoint: median survival time, dose: 36.0 mg/kg/injection, schedule: Q01DX001 (ip), vehicle: alkali diluted with water 108 % of control | endpoint: median survival time, dose: 120.0 mg/kg/injection, schedule: Q01DX009 (ip), vehicle: water 108 % of control

Source: PubChem BioAssay AID256 (DTP/NCI, 2004)
